# Out of some 310,000 compounds screened, about 2,200 (0.71%) showed an effect of 50% or more. Effects have a minus sign here. Some of the results follow.
# Biological target: human ether-à-go-go-related gene (hERG) potassium channel (human, UniProt Q12809)
# Assay: primary screen, population patch clamp on CHO cells stably expressing hERG
# Chain of human ether-à-go-go-related gene (hERG) potassium channel (Q12809 whole entry, looked up): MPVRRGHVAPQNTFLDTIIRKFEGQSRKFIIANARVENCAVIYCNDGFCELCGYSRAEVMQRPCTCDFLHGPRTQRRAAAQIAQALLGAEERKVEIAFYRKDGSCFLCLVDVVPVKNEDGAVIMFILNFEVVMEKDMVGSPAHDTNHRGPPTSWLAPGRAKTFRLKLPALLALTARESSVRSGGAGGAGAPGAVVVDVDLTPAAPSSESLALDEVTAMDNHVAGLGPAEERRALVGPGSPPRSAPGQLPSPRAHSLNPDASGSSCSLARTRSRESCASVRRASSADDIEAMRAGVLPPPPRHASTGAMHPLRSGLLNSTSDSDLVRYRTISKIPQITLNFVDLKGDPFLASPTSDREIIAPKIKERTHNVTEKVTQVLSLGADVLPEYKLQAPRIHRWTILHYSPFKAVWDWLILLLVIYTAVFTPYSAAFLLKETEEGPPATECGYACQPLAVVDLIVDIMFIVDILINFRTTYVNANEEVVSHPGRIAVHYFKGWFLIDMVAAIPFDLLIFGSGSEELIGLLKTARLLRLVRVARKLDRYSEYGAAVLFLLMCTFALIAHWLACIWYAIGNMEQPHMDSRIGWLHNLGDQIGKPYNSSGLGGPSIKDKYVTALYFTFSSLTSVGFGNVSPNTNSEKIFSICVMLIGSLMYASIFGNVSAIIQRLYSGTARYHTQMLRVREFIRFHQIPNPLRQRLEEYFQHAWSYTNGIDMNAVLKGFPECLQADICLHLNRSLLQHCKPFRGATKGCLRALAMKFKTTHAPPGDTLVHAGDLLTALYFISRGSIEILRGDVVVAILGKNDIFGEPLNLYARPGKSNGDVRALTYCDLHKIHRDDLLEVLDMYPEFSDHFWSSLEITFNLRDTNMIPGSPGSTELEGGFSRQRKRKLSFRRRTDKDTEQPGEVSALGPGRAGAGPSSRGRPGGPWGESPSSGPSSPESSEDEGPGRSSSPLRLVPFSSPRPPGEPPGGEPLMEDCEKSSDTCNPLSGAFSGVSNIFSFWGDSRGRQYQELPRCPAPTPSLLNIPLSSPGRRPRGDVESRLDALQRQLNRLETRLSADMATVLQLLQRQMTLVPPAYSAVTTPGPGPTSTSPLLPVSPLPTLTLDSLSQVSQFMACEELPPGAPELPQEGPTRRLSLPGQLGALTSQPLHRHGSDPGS
row,SMILES,"hERG current change (%, negative = inhibition) at 1uM [%]"
1,O=C(N/N=C/C=C\c1ccco1)c1cccs1,17.6
2,CCOC(=O)c1c(C)oc2c1c(C(c1cccnc1)N1CCOCC1)c(O)c1ccccc12 (stereo not drawn),12.3
3,COc1cc2c(cc1OC)C(COc1ccccc1OC)N(C(=O)C(C)C)CC2 (stereo not drawn),1.25
4,O=C(NCCCn1ccnc1)c1ccc2ccccc2c1,0.463
5,CCOc1ccc(-n2ccnc(SCC(=O)Nc3ccc(CC)cc3)c2=O)cc1,9.98
6,CC(C)(C)c1ccc(N=C2SCC(=O)N2Cc2cccs2)cc1,9.57
7,NS(=O)(=O)c1ccc(NC(=O)COC(=O)CN2C(=O)C3CC=CCC3C2=O)cc1 (stereo not drawn),3.31
8,N/N=C1\CCCc2c1[nH]c1ccc([N+](=O)[O-])cc21,1.27
9,CCn1cc(Cl)c(C(=O)Nc2cc(C(=O)OC)cc(C(=O)OC)c2)n1,0.585
10,COCCn1c(-c2ccc(F)cc2)nc2cccnc21,14.8
11,O=C(Nc1ccc(Br)cc1)c1ccc(N2C(=O)C3CC=CCC3C2=O)cc1 (stereo not drawn),8.54
12,C/C(=N\NC(=O)C1(C)CC1(Br)Br)c1cccc(NC(=O)C2CCC2)c1 (stereo not drawn),-2.65
13,Cc1ccc(Oc2ncccc2NC(=O)CC2(CC(=O)O)CCCC2)c2c1CCC2,9.24
14,CCC(=O)OC1(Cc2ccc(CC)cc2)CC(C)N(C)CC1C.Cl (stereo not drawn),-11
15,CC1(C)OC(=O)N(c2ccccc2)C12C=Cc1cc(Br)ccc1O2 (stereo not drawn),-0.931
16,CN(C(=O)c1ccc(C#N)cc1)c1nnc(-c2cnccn2)s1,2.24
17,CCc1ccc(C(=O)COC(=O)c2cnccn2)cc1,10.8
18,O=C(NNC(=O)c1cccs1)c1ccco1,10.4
19,O=C(O)C1=NOC(CNc2ncc(C(F)(F)F)cc2Cl)C1 (stereo not drawn),18
20,CCCNc1nc(N2CCCC2)nc(N2CCCC2)n1,3
21,Cc1nc2sc(C(c3cccs3)N3CCN(Cc4ccccc4)CC3)c(O)n2n1 (stereo not drawn),-50.1
22,O=C(CCn1c(=O)oc2ccccc21)Nc1ccc(C(=O)O)cc1,-10.5
23,COc1ccc(NC(=O)CCCn2c(=O)oc3ccccc32)cc1Cl,-2.56

row,SMILES,"hERG current change (%, negative = inhibition) at 1uM [%]"
1,COc1ccc(OC)c(NC(=O)c2cc(S(=O)(=O)N3CCCCC3)c[nH]2)c1,15.7
2,Cc1cc(Cl)ccc1Oc1nc(-c2ccc(F)cc2)ccc1C#N,-14.8
3,[O-]/[N+](=C\c1ccccc1)[C@@H]1CCCC[C@@H]1/[N+]([O-])=C/c1ccccc1,13.3
4,Cc1ccc(S(=O)(=O)N(C)C)cc1NC(=O)c1cc(C(C)(C)C)nn1Cc1ccccc1,11.6
5,COc1cccc(N2C(=O)CC(N3CCC(c4nc5ccccc5[nH]4)CC3)C2=O)c1 (stereo not drawn),5.76
6,CCC(C(=O)NC(C)(C)C)N(Cc1ccco1)C(=O)CNS(=O)(=O)c1ccc(OC)cc1 (stereo not drawn),9.65
7,O=C(CO/N=C/c1cccc([N+](=O)[O-])c1)NC1CCCCC1,2.34
8,CCOc1ccc(-c2noc(-c3cccnc3)n2)cc1OCC,12.6
9,Cc1cc(N2CCNCC2)nc2ccccc12,5.65
10,Cc1oc(-c2ccc(-c3ccccc3)cc2)nc1CN(CCO)C(C)C,5.48
11,Cc1c2c(nc3nc4ccccc4n13)CC(C)(C)CC2=O,-9.29
12,O=C(NCC(c1ccco1)N1CCN(c2ccccc2)CC1)C(=O)NC1CC1 (stereo not drawn),4.7
13,CCOc1ccc(C(=O)O)cn1,15.2
14,CC(=O)COc1ncn(-c2ccccc2)n1,9.12
15,Cc1[nH]n2c(=O)cc(C(C)C)nc2c1-c1ccccc1,-0.606
16,Cc1ccc(NC(=O)CCS(=O)(=O)c2ccc3nc(C)sc3c2)cc1,10.7
17,O=C(CSc1nnc(-c2cccc(F)c2)o1)N1CCOCC1,17.1
18,Cc1cccc(Oc2ccc(S(=O)(=O)N3CCCCC3)cc2NC(=O)C2=COCCO2)c1,5.13
19,CCOCCCNC(=O)C(c1ccccc1)N(Cc1ccc2c(c1)OCO2)C(=O)CNC(C)=O (stereo not drawn),7.66
20,COc1ccccc1CNC(=O)C(CC(C)C)NS(=O)(=O)c1ccc2c(c1)oc(=O)n2C (stereo not drawn),5.84
21,CC(NC(=O)C1CCCN1S(=O)(=O)c1ccccc1)c1ccccc1 (stereo not drawn),10.1
22,CCOc1ccc2nc(SCC(=O)c3ccc(Cl)s3)sc2c1,4.83

# — PMC4336329 (PLoS ONE, 2015)
